From the supplement of paper PMC3334620
The full ranking holds about 33,000 sequences; the median of “E-score (-0.5 to 0.5)” is about -0.016, and the highest 2% start at about 0.32. This is one part of the list.

The sequences below were run against T1, Stp1 (UniProt B3LFK1) (assay: PBM E-score (8-mer binding enrichment) (E-score (-0.5 to 0.5)); higher = stronger / more preferred TF binding; most listed sequences are background and not binding sites). Conditions: protein concentration: 200 nM; construct: GST-full length.
T1 sequence: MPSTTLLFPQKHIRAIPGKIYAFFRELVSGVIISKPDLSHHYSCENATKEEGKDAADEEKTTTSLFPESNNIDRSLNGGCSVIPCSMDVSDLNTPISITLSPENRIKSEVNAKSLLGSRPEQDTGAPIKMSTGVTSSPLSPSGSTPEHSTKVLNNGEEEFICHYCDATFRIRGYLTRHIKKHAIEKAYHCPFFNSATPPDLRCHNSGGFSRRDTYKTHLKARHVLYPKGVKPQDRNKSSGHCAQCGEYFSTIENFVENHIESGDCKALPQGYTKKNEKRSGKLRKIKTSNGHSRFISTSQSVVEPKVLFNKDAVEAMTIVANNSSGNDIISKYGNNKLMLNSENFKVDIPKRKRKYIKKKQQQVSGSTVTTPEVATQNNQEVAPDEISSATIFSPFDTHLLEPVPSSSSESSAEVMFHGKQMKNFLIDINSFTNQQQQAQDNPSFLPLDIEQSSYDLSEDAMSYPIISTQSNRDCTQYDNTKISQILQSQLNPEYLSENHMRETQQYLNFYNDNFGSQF
Summary of the method: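 GST-tagged yeast TFs (full-length or DNA-binding domain) were made by PURExpress in vitro transcription/translation and applied at about 100-200 nM to universal all-10-mer Agilent arrays. The arrays were made double-stranded by primer extension, on fresh or once-stripped slides. Bound protein was detected with fluorescent anti-GST, and scans were normalised with masliner. Each ungapped eight-base word, pooled with its reverse complement, received an E-score (modified Wilcoxon-Mann-Whitney statistic) from the Universal PBM Analysis Suite.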

Sequence	PBM E-score
AACAAACT	0.23
CCACCCGG	-0.218
CAAACGAA	0.116
AGTGGTCA	-0.0977
ATGAGGTC	-0.273
AAGCGTGA	0.0531
CCGGATGA	-0.156
AGCAAGCC	-0.114
CTCAGCGA	-0.129
CCTCGACC	-0.183
CTTTAATA	0.252
CTACCGAG	-0.0565
ACATGCAG	-0.0406
AACAGGTA	0.0488
AATAGGCC	-0.0433
CTAGTGGC	-0.0105
AGACAAAC	-0.0973
CGTCGAAC	-0.0999
AGACCCCG	-0.222
CTGCACTC	0.109
GCCAGTCC	-0.0719
AGAGCCAT	0.15
ATAAGCGC	0.137
ATGAGTCC	-0.129
AAATTTGG	-0.0647

Sequence	PBM E-score
CAGTTCCG	-0.148
GACCCCTA	-0.252
GATCGAGC	-0.0292
AGCCCGAC	-0.175
ACCTATCT	-0.171
ACTGTTTC	-0.247
CGCGGCAG	0.378
CCCACGTC	-0.0308
CTTGCACA	-0.0455
GACAAAGC	0.242
AATGAGGG	-0.0629
CACACAGA	0.0722
GTTGTCTA	0.0131
ATCGACAG	-0.0194
GGAGTAGA	-0.0824
ACGCGTAT	0.136
AGCCTAAG	-0.235
TATCGATA	0.106
ACCTGGAT	-0.266
CTTGTCGA	-0.0456
ACTGTCCA	-0.0599
CCAAGACG	-0.0997
CGTCTAAG	0.0634
AGCTGGTC	-0.166
AACCTATA	0.158

Sequence	PBM E-score
CCCGCCCA	0.0228
ACCAACAG	-0.0976
ACCCCGCC	0.0989
CAGCTCAC	-0.146
CTTTGTCC	0.0784
CAATCTGA	-0.0131
ACACCCCT	-0.252
ACCAGGAA	-0.0358
ACTAGCCT	0.0146
AACCTGGT	-0.107
CGTCAGAA	-0.206
CTCTTTCA	-0.0859
ACCTTCGT	-0.127
AGGGTGTG	-0.225
GAGTCGGC	-0.00288
GGCAGACC	-0.139
AGTGGCGC	0.274
GCGTACCA	-0.0547
GTTCGGAA	0.0618
GGCTAGGA	-0.131
CCCCTTCA	-0.353
ACGTTAGT	-0.00135
ATCCAGAT	-0.0899
TCAGCACA	-0.0167
ACGGATGA	0.00733

Sequence	PBM E-score
CCGATCGG	0.265
AAATGCTT	0.0515
AATCCGCC	0.00235
CTCCATGC	-0.143
CTTGGAAC	-0.005
GGCAGCAC	-0.0121
CACAACTG	-0.176
AAATAGCC	0.105
CAGATCCG	0.0523
TAGGCTCA	-0.102
CAGCACCA	-0.259
GTTCTGAA	0.115
CGGAGCGC	0.0468
TAATAATA	0.173
CTATACAA	-0.0692
GCGGCGCA	0.463
ATTGGTGC	0.181
GAACAAGA	0.0487
GGTCCGGA	-0.11
CGATGTTC	-0.271
GCAAAGCC	-0.0595
AAAACTAG	0.119
CCAGAACA	-0.167
ATCGTTTC	-0.0261
GAGGAGCA	-0.162

Sequence	PBM E-score
CGGGCGTA	-0.219
CGGTCTAA	-0.0537
TCTTGACA	-0.0665
ACTAAGTG	0.0697
CCTGCACC	-0.271
GAGCATGA	-0.205
GAAGTATA	0.169
AAAGATGG	-0.0774
GCGTTCTA	0.0431
CACGGTAC	0.0963
CATTATCC	0.138
GACCATGA	-0.161
ACCAGACA	0.0143
CTAGTCGA	-0.0849
AAGGCTGC	0.0184
CTTTCAGA	0.0093
TGCAGACA	-0.0811
AAAAAGTC	0.0273
AACGACAT	0.0854
CAACGAGC	-0.175
AATCGTGC	0.24
GTCCAAAA	0.172
TGAATCCA	0.0457
CTGAACCA	-0.0476
CTAGGCGC	0.176

Sequence	PBM E-score
TCATGGGA	-0.129
AGTGAGAC	-0.114
GAAGTAAA	0.0309
AATGCCTA	0.0902
ACTTACCT	-0.2
CGCCAATA	0.0927
CGACGGCG	0.353
CAGCTGAG	-0.105
CACTCCAG	-0.076
ACAGCAGC	0.11
GGACGTAC	-0.0892
AGTAGTAT	0.0866
AACTTGAT	0.174
CGAGTCAG	-0.0885
CTATACCA	-0.00216
CCTCTTGC	-0.0401
GAGGTTCC	-0.0811
CTGGGTTA	-0.215
CTGAGGTC	-0.201
CAAGTGAC	-0.066
TGCTTGAA	0.178
ACCCGGTA	-0.143
GAACGCCA	0.0737
GATCCATA	0.134
ACTGACTC	-0.0466

Sequence	PBM E-score
ACCAGTAA	0.129
ACATTACA	-0.00148
AGCAACGC	0.0899
AAAGGCCA	0.0115
ATAAGAAT	0.187
ATACGACA	0.068
AATTAACC	-0.0507
CTGGAAGC	-0.131
CATAGAGC	-0.156
AATGCACC	-0.0414
AAAGCTAT	0.0448
CTCACCTC	-0.0935
CTCCCCCA	-0.358
CCAGGGGC	-0.255
ATATGCGA	0.0474
ATCTGCTG	-0.116
GCGAACAC	-0.133
CCTTGCAG	-0.0551
TAACTCAA	0.0558
AGGCGCTC	0.137
GATGACAA	0.174
AAACTGTG	0.0483
